# Where a chain is given by its changes, count along the chain named. This is one part of the list.
# B1: UGCAUGC (DNA:RNA)
# RNA: GGGAGACCGGAAUUCAGAUUGUCCUGCAUGCUUAAAUCCCGUCGUAGCCACCA
# DNA 1: CAATCTGAATTCCGGTCTCCC
# DNA 2: TGGTGGCTACGACGGGATT
# B2: AUUGGGG (DNA:RNA)
# RNA: B1 RNA with U25A, G26U, C27U, A28G, U29G, C31G
# DNA 1: CAATCTGAATTCCGGTCTCCC
# DNA 2: TGGTGGCTACGACGGGATT
# B3: CGCGCCA (DNA:RNA)
# RNA: B1 RNA with U25C, A28G, U29C, G30C, C31A
# DNA 1: CAATCTGAATTCCGGTCTCCC
# DNA 2: TGGTGGCTACGACGGGATT
# B4: UGUUUAU (DNA:RNA)
# RNA: B1 RNA with C27U, A28U, G30A, C31U
# DNA 1: CAATCTGAATTCCGGTCTCCC
# DNA 2: TGGTGGCTACGACGGGATT
# B5: AUUUCGC (DNA:RNA)
# RNA: B1 RNA with U25A, G26U, C27U, A28U, U29C
# DNA 1: CAATCTGAATTCCGGTCTCCC
# DNA 2: TGGTGGCTACGACGGGATT
# B6: CUGUCAG (DNA:RNA)
# RNA: GGGAGACCGGAAUUCAGAUUGUCCCUGUCAGUUAAAUCCCGUCGUAGCCACCA
# DNA 1: CAATCTGAATTCCGGTCTCCC
# DNA 2: TGGTGGCTACGACGGGATT
# B7: GCCUGUG (DNA:RNA)
# RNA: B6 RNA with C25G, U26C, G27C, C29G, A30U
# DNA 1: CAATCTGAATTCCGGTCTCCC
# DNA 2: TGGTGGCTACGACGGGATT
# B8: GUGCUAU (DNA:RNA)
# RNA: B6 RNA with C25G, U28C, C29U, G31U
# DNA 1: CAATCTGAATTCCGGTCTCCC
# DNA 2: TGGTGGCTACGACGGGATT
# B9: AAUGCCC (DNA:RNA)
# RNA: B6 RNA with C25A, U26A, G27U, U28G, A30C, G31C
# DNA 1: CAATCTGAATTCCGGTCTCCC
# DNA 2: TGGTGGCTACGACGGGATT
# B10: CGUCACC (DNA:RNA)
# RNA: B1 RNA with U25C, C27U, A28C, U29A, G30C
# DNA 1: CAATCTGAATTCCGGTCTCCC
# DNA 2: TGGTGGCTACGACGGGATT
# B11: AUGAAAU (DNA:RNA)
# RNA: B6 RNA with C25A, U28A, C29A, G31U
# DNA 1: CAATCTGAATTCCGGTCTCCC
# DNA 2: TGGTGGCTACGACGGGATT
# B12: GGGCUAA (DNA:RNA)
# RNA: B6 RNA with C25G, U26G, U28C, C29U, G31A
# DNA 1: CAATCTGAATTCCGGTCTCCC
# DNA 2: TGGTGGCTACGACGGGATT
# B13: UCACCUC (DNA:RNA)
# RNA: B1 RNA with G26C, C27A, A28C, U29C, G30U
# DNA 1: CAATCTGAATTCCGGTCTCCC
# DNA 2: TGGTGGCTACGACGGGATT
# B14: UAAACCC (DNA:RNA)
# RNA: B1 RNA with G26A, C27A, U29C, G30C
# DNA 1: CAATCTGAATTCCGGTCTCCC
# DNA 2: TGGTGGCTACGACGGGATT
# B15: UGGCCGU (DNA:RNA)
# RNA: B1 RNA with C27G, A28C, U29C, C31U
# DNA 1: CAATCTGAATTCCGGTCTCCC
# DNA 2: TGGTGGCTACGACGGGATT
# B16: CCCAAUC (DNA:RNA)
# RNA: B1 RNA with U25C, G26C, U29A, G30U
# DNA 1: CAATCTGAATTCCGGTCTCCC
# DNA 2: TGGTGGCTACGACGGGATT
# B17: GAUCAUU (DNA:RNA)
# RNA: GGGAGACCGGAAUUCAGAUUGUCCGAUCAUUUUAAAUCCCGUCGUAGCCACCA
# DNA 1: CAATCTGAATTCCGGTCTCCC
# DNA 2: TGGTGGCTACGACGGGATT
# B18: GACUGUU (DNA:RNA)
# RNA: B17 RNA with U27C, C28U, A29G
# DNA 1: CAATCTGAATTCCGGTCTCCC
# DNA 2: TGGTGGCTACGACGGGATT
# B19: UGUAUGC (DNA:RNA)
# RNA: B1 RNA with C27U
# DNA 1: CAATCTGAATTCCGGTCTCCC
# DNA 2: TGGTGGCTACGACGGGATT
# B20: AAGUGAC (DNA:RNA)
# RNA: B6 RNA with C25A, U26A, C29G, G31C
# DNA 1: CAATCTGAATTCCGGTCTCCC
# DNA 2: TGGTGGCTACGACGGGATT
# B21: UGGUCGG (DNA:RNA)
# RNA: B6 RNA with C25U, U26G, A30G
# DNA 1: CAATCTGAATTCCGGTCTCCC
# DNA 2: TGGTGGCTACGACGGGATT
# B22: CGGAUGC (DNA:RNA)
# RNA: B1 RNA with U25C, C27G
# DNA 1: CAATCTGAATTCCGGTCTCCC
# DNA 2: TGGTGGCTACGACGGGATT
# B23: CAUAUAG (DNA:RNA)
# RNA: B6 RNA with U26A, G27U, U28A, C29U
# DNA 1: CAATCTGAATTCCGGTCTCCC
# DNA 2: TGGTGGCTACGACGGGATT
# B24: CCCGUGG (DNA:RNA)
# RNA: B1 RNA with U25C, G26C, A28G, C31G
# DNA 1: CAATCTGAATTCCGGTCTCCC
# DNA 2: TGGTGGCTACGACGGGATT
# B25: UAAUAGU (DNA:RNA)
# RNA: B17 RNA with G25U, U27A, C28U, U30G
# DNA 1: CAATCTGAATTCCGGTCTCCC
# DNA 2: TGGTGGCTACGACGGGATT
# B26: CCUUGUU (DNA:RNA)
# RNA: B17 RNA with G25C, A26C, C28U, A29G
# DNA 1: CAATCTGAATTCCGGTCTCCC
# DNA 2: TGGTGGCTACGACGGGATT
# B27: AUGGCGU (DNA:RNA)
# RNA: B6 RNA with C25A, U28G, A30G, G31U
# DNA 1: CAATCTGAATTCCGGTCTCCC
# DNA 2: TGGTGGCTACGACGGGATT
# B28: UUAAGUA (DNA:RNA)
# RNA: B1 RNA with G26U, C27A, U29G, G30U, C31A
# DNA 1: CAATCTGAATTCCGGTCTCCC
# DNA 2: TGGTGGCTACGACGGGATT
# B29: GCAACCA (DNA:RNA)
# RNA: B6 RNA with C25G, U26C, G27A, U28A, A30C, G31A
# DNA 1: CAATCTGAATTCCGGTCTCCC
# DNA 2: TGGTGGCTACGACGGGATT
# B30: CUUACUA (DNA:RNA)
# RNA: B6 RNA with G27U, U28A, A30U, G31A
# DNA 1: CAATCTGAATTCCGGTCTCCC
# DNA 2: TGGTGGCTACGACGGGATT
# B31: GGCCACG (DNA:RNA)
# RNA: B17 RNA with A26G, U27C, U30C, U31G
# DNA 1: CAATCTGAATTCCGGTCTCCC
# DNA 2: TGGTGGCTACGACGGGATT
# Target: T1, RBFOX1 RRM RbFoxmut (Fox-RRM*) (Homo sapiens, UniProt Q9NWB1 109-208, R118D;E147R;N151S;E152T)
# T1 sequence: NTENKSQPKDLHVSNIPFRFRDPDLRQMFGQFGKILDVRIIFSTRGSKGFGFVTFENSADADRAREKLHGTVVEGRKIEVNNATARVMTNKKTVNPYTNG
# Test: EMSA; HiTS-Eq, 1 nM pool, 10 min; buffer printed only for the single-RNA assays: 10 mM Tris pH 7.5, 150 mM NaCl, 3.4 mM EDTA, 0.001% NP-40, 30 C
# Conditions: tags: His6 N-terminal (pET28a); label: 5' 32P
# Summary of the method: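 Purified RbFox RRM, wild type or mutant, was incubated for 10 min in 50 µL with 1 nM of a 5′-radiolabelled RNA pool carrying 7 randomized nucleotides, whose flanks were annealed to DNA oligonucleotides, over a series of increasing protein concentrations. Unbound RNA was resolved on 8% native PAGE, cut out, reverse-transcribed, barcoded by PCR and sequenced on an Illumina HiSeq 2500. Relative association constants were derived from changes in read counts for each RNA species versus the control reaction and normalised to the cognate motif.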
row,Binder,binding signal
1,B1,1.29 KA relative to UGCAUGU
2,B2,0.12 KA relative to UGCAUGU
3,B3,0.0906 KA relative to UGCAUGU
4,B4,0.138 KA relative to UGCAUGU
5,B5,0.0832 KA relative to UGCAUGU
6,B6,0.102 KA relative to UGCAUGU
7,B7,0.184 KA relative to UGCAUGU
8,B8,0.124 KA relative to UGCAUGU
9,B9,0.0845 KA relative to UGCAUGU
10,B10,0.0455 KA relative to UGCAUGU
11,B11,0.104 KA relative to UGCAUGU
12,B12,0.0817 KA relative to UGCAUGU
13,B13,0.0699 KA relative to UGCAUGU
14,B14,0.0742 KA relative to UGCAUGU
15,B15,0.174 KA relative to UGCAUGU
16,B16,0.0536 KA relative to UGCAUGU

row,Binder,binding signal
1,B17,0.0595 KA relative to UGCAUGU
2,B18,0.173 KA relative to UGCAUGU
3,B19,0.684 KA relative to UGCAUGU
4,B20,0.0758 KA relative to UGCAUGU
5,B21,0.163 KA relative to UGCAUGU
6,B22,0.189 KA relative to UGCAUGU
7,B23,0.152 KA relative to UGCAUGU
8,B24,0.0686 KA relative to UGCAUGU
9,B25,0.0472 KA relative to UGCAUGU
10,B26,0.0862 KA relative to UGCAUGU
11,B27,0.147 KA relative to UGCAUGU
12,B28,0.121 KA relative to UGCAUGU
13,B29,0.0549 KA relative to UGCAUGU
14,B30,0.113 KA relative to UGCAUGU
15,B31,0.0894 KA relative to UGCAUGU
